Experimental findings from the RNAGym collection of RNA variant scans (doi:10.1073/pnas.2313332121) are described below.

This sample is rich in variants without activity.

The labels stand for the following.
B1: TPR 5TU (parent)
chain: GGAUCUUCUCGAUCUAACAAAAAAGACAAAUCUGCCACAAAGCUUGAGAGCAUCUUCGGAUGCAGAGGCGGCAGCCUUCGGUGGCGCGAUAGCGCCAACGUUCUCAACUAUGACACGCAAAACGCGUGCUCCGUUGAAUGGAGUUUAUCAUG

Variants of B1 are the subject of this data set. As to the kind of experiment: polymerase ribozyme fitness, log enrichment relative to wild type (log ratio); higher = more active; in vitro selection for triplet polymerase activity. The procedure, abridged:
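One round of in vitro selection, in triplicate, was applied to PCR-built, transcribed mutant libraries of each subunit of a heterodimeric triplet polymerase ribozyme. The steps were annealing with a biotinylated primer, partner subunit and triplets, incubation frozen at −7 °C, gel excision of extended constructs, streptavidin-bead capture and RT-PCR. Fitness is the logarithm, base 2, of genotype enrichment over wild-type enrichment from inverse-variance-weighted replicate averages of Illumina-sequenced inputs and outputs, keeping genotypes with ≥10 input reads and ≥1 read per output.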
For the variant U4G A39U C85A U134G U151A, the “polymerase ribozyme fitness (log ratio)” value was no more than -4.2. For the variant U4G G84U A107U G140A, the “polymerase ribozyme fitness (log ratio)” value was no more than -4.2.

U4A A12U G80U G81U G92C: the “polymerase ribozyme fitness (log ratio)” value was -0.513.

As for U4A A20U G50C U55A A73G G84A G88C C132U U135A, the “polymerase ribozyme fitness (log ratio)” value was no more than -4.2. Take U4G G50C G59U C87U C116A G140U: the “polymerase ribozyme fitness (log ratio)” value was no more than -4.2. Consider U4A C57A C75G U134G, for which the “polymerase ribozyme fitness (log ratio)” value is no more than -4.2. As to U4G C14G C76G, the “polymerase ribozyme fitness (log ratio)” value is no more than -4.2.

Take U4G G94A A115U U151G: the “polymerase ribozyme fitness (log ratio)” value was no more than -4.2. Take U4G A21U U31A G84U A115C: the “polymerase ribozyme fitness (log ratio)” value was -3.65. For the variant U4A G48U C57G C93U G136A U146G, the “polymerase ribozyme fitness (log ratio)” value is -2.55. Turning to U4G U6G A22C A73G G83C, the “polymerase ribozyme fitness (log ratio)” value is no more than -4.2. Turning to U4C U6A A40U C95U G143U, the “polymerase ribozyme fitness (log ratio)” value was no more than -4.2. As for U4G A21C A28C G81U C95U G136A, the figure is no more than -4.2.

With U4C C54U C75U C96A U139A, the “polymerase ribozyme fitness (log ratio)” value was no more than -4.2. In the case of U4A C54U U56A C79G C85U C103G C116U G143C, the “polymerase ribozyme fitness (log ratio)” value was no more than -4.2. For U4A U44A U61A G92C, the “polymerase ribozyme fitness (log ratio)” value is no more than -4.2.

In the case of U4G A24C G84U G86U C108U A122G U151C, the “polymerase ribozyme fitness (log ratio)” value was no more than -4.2.

U4C U56A G84A A110U A119C A150C G152A: the “polymerase ribozyme fitness (log ratio)” value was no more than -4.2.

For U4G A19G G59A C105U A107C, the “polymerase ribozyme fitness (log ratio)” value was no more than -4.2. In the case of U4G A40G C72G C87U U104G C118U A122G, the “polymerase ribozyme fitness (log ratio)” value is no more than -4.2. As to U4G U56A A64U G86A C95U A113G C131G U139C A142C, the “polymerase ribozyme fitness (log ratio)” value was no more than -4.2. For U4G A22U G50C C57U C76G U82C A107G A115C A137U, the “polymerase ribozyme fitness (log ratio)” value was no more than -4.2.

Regarding U4A G62C C63U C79A C85U A98U C99U C131A U135C U144A, the “polymerase ribozyme fitness (log ratio)” value was no more than -4.2. As for C5A A20G G48A C57A U61A U78A G88C, the figure is no more than -4.2; as for U4A C85A A106G U135G A142U, no more than -4.2; as for U4C G11C G100A A120C, no more than -4.2.

As for U4A A23G C57G G58C A60C U77A, the “polymerase ribozyme fitness (log ratio)” value is no more than -4.2.

Turning to U4A A16U A52U A60G G84U U102A C125A U135G, the “polymerase ribozyme fitness (log ratio)” value was no more than -4.2. As for C5A A20C, the figure is 0.413; as for U4C A23G A37U G50C C105U, no more than -4.2. As for U4A C5U C32A C54U G58A A73G G84A A91G A121U C125U U145C U146C, the figure is no more than -4.2; as for U4A G50C U56G C85G C105A C108G U127C, no more than -4.2; as for U4G A49G C87G, no more than -4.2. For the variant U4A U56A G59A C87G U90G A137U G143C U146C, the “polymerase ribozyme fitness (log ratio)” value is no more than -4.2.

U4A C35A C85A A138C G143C U146A G152A: the “polymerase ribozyme fitness (log ratio)” value was no more than -4.2.

On to U4G G68U A73G G88U U139A, for which the “polymerase ribozyme fitness (log ratio)” value is no more than -4.2.

In the case of U4C A66U U82A G88C C96U U102A, the “polymerase ribozyme fitness (log ratio)” value was no more than -4.2. Take C5A A21G G46U A52G U56A C93U C95U C108A: the “polymerase ribozyme fitness (log ratio)” value is no more than -4.2.

Consider U4A A12G A20U U44G A52G U55A G94C, for which the “polymerase ribozyme fitness (log ratio)” value is no more than -4.2.

U4G U6A A17U C87U C93U G126A G136U: the “polymerase ribozyme fitness (log ratio)” value was no more than -4.2. Consider U4C U6G G42C A60G A66C C85U A107U C114U C125G, for which the “polymerase ribozyme fitness (log ratio)” value was no more than -4.2. For U4G G11U G59A C93U C125U U144C, the “polymerase ribozyme fitness (log ratio)” value was no more than -4.2. Consider U4G C36U G48U G92U A120G G141C U144C, for which the “polymerase ribozyme fitness (log ratio)” value was no more than -4.2. For the variant U4C C54U U55A C76U C85A C95G U127A U151C, the “polymerase ribozyme fitness (log ratio)” value was no more than -4.2.

As for U4G A24U A39C C103G A121G, the “polymerase ribozyme fitness (log ratio)” value was no more than -4.2. As for U4G A40C A49G C96A, the “polymerase ribozyme fitness (log ratio)” value is -3.02. With U4C A22C A47C G62A U77G U109G, the “polymerase ribozyme fitness (log ratio)” value was no more than -4.2. U4A G74A U77C G83U C96U: the “polymerase ribozyme fitness (log ratio)” value was no more than -4.2.

Turning to U4G C10G C14A A23U C36G U55A C87A U90G G94C C116A A138G U145A, the “polymerase ribozyme fitness (log ratio)” value was no more than -4.2. As for U4C A16U C57A C99U U130G U148G, the figure is no more than -4.2.

Consider U4A C85U, for which the “polymerase ribozyme fitness (log ratio)” value is -1.53. For U4A U7A C14G A30C A39U U56A C116U G141U G143A U148G, the “polymerase ribozyme fitness (log ratio)” value is no more than -4.2. Consider U4G C14G G48U G62A C76G A119U A122U C132G U144G, for which the “polymerase ribozyme fitness (log ratio)” value is no more than -4.2.

As for U4G C8A U33G C38U C57A A73C C95G A119C, the “polymerase ribozyme fitness (log ratio)” value is no more than -4.2.

Regarding C5A A17C G25U C75A C93U, the “polymerase ribozyme fitness (log ratio)” value is no more than -4.2. Consider U4C A16U G48A A52C A66U C85U G88A A98U A137U, for which the “polymerase ribozyme fitness (log ratio)” value was no more than -4.2. As for U4G A49G C75A, the figure is no more than -4.2; as for U4G C10U G83U A98U C105U, -0.982; as for U4G U7C A16G C96G, -2.73. Take U4C A12C A24U C27G A28G U44A G88A C116U G143A: the “polymerase ribozyme fitness (log ratio)” value is no more than -4.2.

For the variant U4A A29C C85U U134G G140C, the “polymerase ribozyme fitness (log ratio)” value is no more than -4.2. Take U4G A37G U44G C72U C93G A97G A98C G141U: the “polymerase ribozyme fitness (log ratio)” value is no more than -4.2.

As to U4A A19U G65U G74U A91U, the “polymerase ribozyme fitness (log ratio)” value was no more than -4.2. As for C5A A17U G83U C87G, the figure is no more than -4.2. Take U4C G59A C63A A98U U148C: the “polymerase ribozyme fitness (log ratio)” value is no more than -4.2. With C5A A20U G67A U77A G81A A97G C118G G140A A142U, the “polymerase ribozyme fitness (log ratio)” value is no more than -4.2.

As to C5A A19C A20U C75A C79G U82A, the “polymerase ribozyme fitness (log ratio)” value was no more than -4.2.

Take U4G G84A C87U A106C G141A U144G: the “polymerase ribozyme fitness (log ratio)” value was no more than -4.2. In the case of U4G U77C U102C G124U C125A, the “polymerase ribozyme fitness (log ratio)” value is no more than -4.2. Take U4G C8U U56A G84A: the “polymerase ribozyme fitness (log ratio)” value was -1.05.

For the variant U4A U13A A29C G50C A64C C93G U102A, the “polymerase ribozyme fitness (log ratio)” value was no more than -4.2. As for U4A A23U A37C G46C A47G G62A C116G A138G U139A U148A A150C, the figure is no more than -4.2; as for U4G U31G A49C C51A G94U, no more than -4.2; as for U4C C93A U151G, no more than -4.2. As for U4A A19C C87A A119G, the figure is no more than -4.2.

Take U4G G84A C96U C108A G143C: the “polymerase ribozyme fitness (log ratio)” value was no more than -4.2. Regarding U4C U55A C57G C79G G88C U134A, the “polymerase ribozyme fitness (log ratio)” value was no more than -4.2. Turning to U4A G11A A28U G65A C72U G80U G84C A91C A97C A106C C118U G141U, the “polymerase ribozyme fitness (log ratio)” value was no more than -4.2. Take U4A A12U G84A A89G: the “polymerase ribozyme fitness (log ratio)” value was -0.965.

Turning to U4C C38G G59A U61A U148C, the “polymerase ribozyme fitness (log ratio)” value is no more than -4.2. As for U4A A20G A37U C95G A107U A115G C123A U135C, the figure is no more than -4.2. As for C5A, the “polymerase ribozyme fitness (log ratio)” value was 0.273. As for U4G A12U C32G G67C C72U C93G, the figure is no more than -4.2; as for U4C C8G G88C, no more than -4.2.
